This is an account of results in article PMC4336329 (PLoS ONE, 2015).

Molecules are shown by their SMILES. The whole screen tested about 310,000 compounds, of which about 2,200 (0.71%) showed an effect of 50% or more. The effect is printed as a negative number. This is one part of the list.

The target in this assay is human ether-à-go-go-related gene (hERG) potassium channel (human, UniProt Q12809). In words: primary screen, population patch clamp on CHO cells stably expressing hERG.
Sequence of human ether-à-go-go-related gene (hERG) potassium channel (Q12809 whole entry, looked up): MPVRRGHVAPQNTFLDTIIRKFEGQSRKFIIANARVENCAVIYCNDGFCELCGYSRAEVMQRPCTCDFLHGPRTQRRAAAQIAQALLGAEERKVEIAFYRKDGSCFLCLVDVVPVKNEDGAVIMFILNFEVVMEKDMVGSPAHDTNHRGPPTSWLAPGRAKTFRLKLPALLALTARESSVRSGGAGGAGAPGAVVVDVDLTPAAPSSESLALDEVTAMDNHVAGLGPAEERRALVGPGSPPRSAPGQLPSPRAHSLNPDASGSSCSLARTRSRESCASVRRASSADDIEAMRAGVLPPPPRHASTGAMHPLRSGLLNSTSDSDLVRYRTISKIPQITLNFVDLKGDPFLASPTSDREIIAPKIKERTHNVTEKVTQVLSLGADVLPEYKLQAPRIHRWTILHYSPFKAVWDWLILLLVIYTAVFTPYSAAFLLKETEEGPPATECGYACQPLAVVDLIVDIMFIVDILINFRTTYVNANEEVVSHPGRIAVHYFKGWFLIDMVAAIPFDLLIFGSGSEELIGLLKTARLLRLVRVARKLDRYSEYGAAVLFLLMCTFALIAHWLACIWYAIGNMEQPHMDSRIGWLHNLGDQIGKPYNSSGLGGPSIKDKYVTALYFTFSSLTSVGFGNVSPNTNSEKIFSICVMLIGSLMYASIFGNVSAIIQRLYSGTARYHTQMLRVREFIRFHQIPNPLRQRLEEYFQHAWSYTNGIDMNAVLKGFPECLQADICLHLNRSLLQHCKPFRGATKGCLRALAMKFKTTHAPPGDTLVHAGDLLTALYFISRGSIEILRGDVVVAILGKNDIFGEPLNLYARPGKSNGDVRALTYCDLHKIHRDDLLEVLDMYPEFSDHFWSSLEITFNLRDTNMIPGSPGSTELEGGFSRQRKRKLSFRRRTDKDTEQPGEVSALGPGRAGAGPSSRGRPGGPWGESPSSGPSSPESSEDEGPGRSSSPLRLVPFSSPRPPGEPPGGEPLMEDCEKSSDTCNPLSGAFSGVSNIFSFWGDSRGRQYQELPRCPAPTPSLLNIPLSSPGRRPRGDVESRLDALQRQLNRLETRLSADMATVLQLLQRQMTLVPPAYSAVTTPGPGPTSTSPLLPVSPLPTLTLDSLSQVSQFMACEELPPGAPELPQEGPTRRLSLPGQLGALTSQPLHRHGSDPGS
For the molecule `Cc1ccc(S(=O)(=O)Nc2nc3ccccc3nc2NCc2ccco2)cc1C`, the “hERG current change (%, negative = inhibition) at 1uM” value worked out at 8.42%.

As for `CCN=c1sc(C(=O)NCCc2ccccc2)cc(=O)n1CC`, the “hERG current change (%, negative = inhibition) at 1uM” value is 9.48%.

As to `Cn1c(=O)c2c(nc(SCCCC#N)n2Cc2c(F)cccc2Cl)n(C)c1=O`, the “hERG current change (%, negative = inhibition) at 1uM” value is -20%.

Consider `COc1cccc2c(=O)c3ccoc3n(C)c12`, for which the “hERG current change (%, negative = inhibition) at 1uM” value is 5.12%.

For the molecule `CC(C)=CCCC(C)CN1CCC(N2CCC(C(=O)N3CCCC3)CC2)CC1` (centres unmarked), the “hERG current change (%, negative = inhibition) at 1uM” value was determined as 3.15%.

Take `Cc1noc(C)c1S(=O)(=O)Nc1ccc(O)c2c(=O)cc(-c3ccccc3Cl)oc12`: the “hERG current change (%, negative = inhibition) at 1uM” value was 10.1%.

With `CCNc1nc(NCC)n2c(SCC(=O)Nc3cccc(F)c3)nnc2n1`, the “hERG current change (%, negative = inhibition) at 1uM” value was 15.6%.

`CCOC(=O)c1cc2sccc2n1CC(=O)Nc1ccc(OC)cc1`: the “hERG current change (%, negative = inhibition) at 1uM” value amounted to 11.9%.

As for `CCc1cccc2c(C(=S)N3CCOCC3)c[nH]c12`, the “hERG current change (%, negative = inhibition) at 1uM” value is -1.08%.

With `CC(=O)NCN1CCN(CNC(C)=O)CC1`, the “hERG current change (%, negative = inhibition) at 1uM” value is reported as 6.72%.

For the molecule `Cc1ccc(-c2ccnc3[nH]n(-c4ccccc4)c(=O)c23)cc1`, the “hERG current change (%, negative = inhibition) at 1uM” value was 13%.

Consider `COc1cc(/C=N/NC(=O)C(C)Nc2n[nH]c(=O)[nH]c2=O)ccc1O` (centres unmarked), for which the “hERG current change (%, negative = inhibition) at 1uM” value is reported as 13.8%.

For `CCOc1ccc(NC(=O)CN2CCC(n3cnc4cc(F)ccc43)CC2)cc1`, the “hERG current change (%, negative = inhibition) at 1uM” value is recorded as -71.7%.

With `Nc1nc(N2C(=O)C3CC=CCC3C2=O)nn1-c1ccccc1` (centres unmarked), the “hERG current change (%, negative = inhibition) at 1uM” value is listed as 15.4%.

With `COC(=O)CSc1nc2cc(Cl)ccc2c(=O)n1C1CCCC1`, the “hERG current change (%, negative = inhibition) at 1uM” value turned out to be 19.5%.

As for `COc1ccc2nc(NC(=O)C3CCCN3S(=O)(=O)c3ccc(C)cc3)sc2c1` (centres unmarked), the “hERG current change (%, negative = inhibition) at 1uM” value was 7.53%.

`CC(C)c1nc(SCC(=O)Nc2ccc(N(C)C)cc2)c2ccccc2n1`: the “hERG current change (%, negative = inhibition) at 1uM” value amounted to 6.72%.

In the case of `CCOC(=O)N1CCN(Cc2nc3cc([N+](=O)[O-])ccc3n2CC)CC1`, the “hERG current change (%, negative = inhibition) at 1uM” value is -6.46%.

With `COC(=O)/C(=C\c1c[nH]c2ccccc12)NC(C)=O`, the “hERG current change (%, negative = inhibition) at 1uM” value came to 2.7%.

As to `CC(C)Oc1ccc(S(=O)(=O)N2CCCCC2)cc1NC(=O)C1=COCCO1`, the “hERG current change (%, negative = inhibition) at 1uM” value is 16.2%.

Consider `O=C(N/N=C/c1cc(Br)c(Br)s1)c1ccncc1`, for which the “hERG current change (%, negative = inhibition) at 1uM” value amounted to 6.46%.

For the molecule `O=C(CSc1cccc[n+]1[O-])NC1CCCCCCC1`, the “hERG current change (%, negative = inhibition) at 1uM” value came out at 4.13%.

Turning to `CCOC(=O)c1oc2ccccc2c1NC(=O)c1cccc(OC)c1OC`, the “hERG current change (%, negative = inhibition) at 1uM” value was -2.52%.

As for `COCCOC(=O)c1sc(=S)n(CCOC)c1N`, the “hERG current change (%, negative = inhibition) at 1uM” value is 0.714%.

In the case of `O=C(NC(=S)Nc1ccc(Cl)c(C(=O)O)c1)c1cccc(COc2ccccc2)c1`, the “hERG current change (%, negative = inhibition) at 1uM” value amounted to 8.19%.

As to `Cc1ccccc1C1NC(=S)NC2=C1C(=O)CC(C)(C)C2` (centres unmarked), the “hERG current change (%, negative = inhibition) at 1uM” value is -0.209%.

For the molecule `NC(=O)CN1C(=O)C(=O)N(Cc2cccc(Cl)c2)C1=O`, the “hERG current change (%, negative = inhibition) at 1uM” value was determined as 7.6%.

Turning to `Cc1onc(-c2ccccc2)c1C(=O)Nc1ccc2c(c1)OCCO2`, the “hERG current change (%, negative = inhibition) at 1uM” value amounted to 14.3%.

On to `COCC1CCN(Cc2cn[nH]c2-c2cc3ccccc3o2)C1` (centres unmarked), for which the “hERG current change (%, negative = inhibition) at 1uM” value is on record as 0.607%.

Regarding `COc1cc2c(cc1OC)C(C)N(C(=O)c1sccc1C)CC2` (centres unmarked), the “hERG current change (%, negative = inhibition) at 1uM” value is 9.97%.

For `CN1C(=O)C(C)(C)c2cc(S(=O)(=O)NCc3ccc(Cl)cc3)ccc21`, the “hERG current change (%, negative = inhibition) at 1uM” value is listed as 0.513%.

As to `Cc1ccc(S(=O)(=O)N2c3ccc(S(N)(=O)=O)cc3CC2C)cc1` (centres unmarked), the “hERG current change (%, negative = inhibition) at 1uM” value turned out to be 2.33%.

`CCOc1cc(NC(=S)Nc2ccc(Cl)cc2)c(OCC)cc1NC(C)=O`: the “hERG current change (%, negative = inhibition) at 1uM” value is given as 9.06%.

For `O=C(CCCN1CCC(O)(c2ccc(Br)cc2)CC1)c1ccc(F)cc1`, the “hERG current change (%, negative = inhibition) at 1uM” value was -75.7%.

As for `O=C(Nc1nnc(-c2ccncc2)s1)C1CCCO1` (centres unmarked), the “hERG current change (%, negative = inhibition) at 1uM” value stood at 21.4%.

For the molecule `O=C(CSCc1cccc(CSCC(=O)Nc2ccccc2)n1)Nc1ccccc1`, the “hERG current change (%, negative = inhibition) at 1uM” value is recorded as -59.7%.

Turning to `N#Cc1ccc(COC(=O)Cn2nnc(-c3ccccc3)n2)cc1`, the “hERG current change (%, negative = inhibition) at 1uM” value stood at 7.61%.

On to `Nc1ccc2c(c1)C(=O)N(c1cccc3ccccc13)C2=O`, for which the “hERG current change (%, negative = inhibition) at 1uM” value turned out to be 12.6%.

For the molecule `CC(/C=N/NC(=O)c1cc(-c2ccccc2)nc2ccccc12)=C\c1ccco1`, the “hERG current change (%, negative = inhibition) at 1uM” value stood at 5.45%.

Turning to `COc1ccccc1-c1nn(-c2ccccc2)cc1C(=O)N1CCc2ccccc2C1`, the “hERG current change (%, negative = inhibition) at 1uM” value was determined as 3.17%.

In the case of `CCc1nnc(NC(=O)[C@@H](NC(=O)c2ccc(OC)cc2)C(C)C)s1`, the “hERG current change (%, negative = inhibition) at 1uM” value is given as 5.59%.

Take `CC(O)[C@@]1(O)CC[C@H]2[C@@H]3CC[C@H]4C[C@@H](O)CC[C@]4(C)C3=CC[C@@]21C` (some centres unmarked): the “hERG current change (%, negative = inhibition) at 1uM” value was 2.66%.

Consider `O=C(CN1CCN(C(=O)c2ccccc2)CC1)Nc1ccc(Br)cn1`, for which the “hERG current change (%, negative = inhibition) at 1uM” value is -72.1%.

For `Cc1cccc(C)c1NC(=O)c1cc(-c2ccccn2)nc2ccccc12`, the “hERG current change (%, negative = inhibition) at 1uM” value is 7.6%.
